Measured values from publication PMC7819943, “Rice protein-binding microarrays: a tool to detect cis-acting elements near promoter regions in rice”.
This is one part of the list.

target: T1, OsWOX13 (Oryza sativa, UniProt Q5QMM3 1-267); test: protein-binding microarray (RPBM); PBS, 2% BSA, 51.3 ng/ul salmon testes DNA, 50 uM zinc acetate, 200 nM TF, 25 C, 1 h; high values mean tight binding; settings: protein: recombinant; tags: N-terminal polyhistidine and DsRed monomer fusion (pET32a); label: CyDye5-dUTP incorporated in the synthesized complementary strand; 3' TTTTT single-stranded linker to array surface; dsDNA, one strand shown
T1 sequence: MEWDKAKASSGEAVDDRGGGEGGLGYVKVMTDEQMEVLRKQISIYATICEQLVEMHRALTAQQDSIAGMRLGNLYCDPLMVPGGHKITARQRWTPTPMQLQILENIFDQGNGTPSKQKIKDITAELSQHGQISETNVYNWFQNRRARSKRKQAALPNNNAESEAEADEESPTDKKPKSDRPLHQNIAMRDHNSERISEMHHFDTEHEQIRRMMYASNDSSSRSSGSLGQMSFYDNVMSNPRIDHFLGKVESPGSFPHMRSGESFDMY
Summary of the method: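 Transcription factors, each fused N-terminally to a polyhistidine tag and DsRed, were expressed in E. coli BL21-CodonPlus and purified on Ni–NTA. A custom Agilent array was made double-stranded by primer extension with Cy5-dUTP and blocked with 2% BSA. It was incubated with 200 nM protein in PBS, 2% BSA, salmon testes DNA and 50 µM zinc acetate at 25 °C for 1 h, then washed. The binding signal is per-feature fluorescence intensity (arbitrary units) read on an Axon 4000B scanner.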

| Sequence | binding signal |
| --- | --- |
| CGGATTAATTAGGCTTAATAAATTTATCTCGCAATTTACACGGAGTCACCTAGTGCAG | 44700 fluorescence intensity (a.u.) |
| TGTTAATTTGATGAGTCGCTCTTCTTCATTGTAGGGTGAACGGAGTCACCTAGTGCAG | 42100 fluorescence intensity (a.u.) |
| TATTGTCACACTGATTGGATACAAGTCGCGGTTTGTATATCGGAGTCACCTAGTGCAG | 16400 fluorescence intensity (a.u.) |
| CATTTATATAATTAAACAATCAATAAAGGGAATTACACTACGGAGTCACCTAGTGCAG | 21500 fluorescence intensity (a.u.) |
| TGTAATTTATTTTGTTATTAGTCTACGTTTAATACTTGAACGGAGTCACCTAGTGCAG | 16800 fluorescence intensity (a.u.) |
| AAAGAGTGATTATGAGTCATTGTTACGAAGAATCTAGCATCGGAGTCACCTAGTGCAG | 14300 fluorescence intensity (a.u.) |
| GCAGTAATTAGCTTGTGCACCTTACCTTCTGATGCAGCTCCGGAGTCACCTAGTGCAG | 20000 fluorescence intensity (a.u.) |
| CCACCACCAATCACTGCCTCCGATCCGACTGGATCAGGTACGGAGTCACCTAGTGCAG | 13800 fluorescence intensity (a.u.) |
| CACATGATGACTTGATTCCCGGTACGTTTCGTGCACAAAGCGGAGTCACCTAGTGCAG | 3340 fluorescence intensity (a.u.) |
| AATTAAATTTTAACTATTAATATTATATTTTATAAATATTCGGAGTCACCTAGTGCAG | 6480 fluorescence intensity (a.u.) |
| TAAGGATAGTCAACAAATTGAAGGAATATCTTATACATGCCGGAGTCACCTAGTGCAG | 3510 fluorescence intensity (a.u.) |
| TATAACAAATTTGAATGTGTCATTTTCATATGCCCAAAATCGGAGTCACCTAGTGCAG | 4090 fluorescence intensity (a.u.) |
| ATCGGACAAATTTTAGTAAGTGACGTTAACTTCTGCATTACGGAGTCACCTAGTGCAG | 3980 fluorescence intensity (a.u.) |
| CATAATTGCCGGTGCGTGATGCGGGAGTTGGTTCGACCAGCGGAGTCACCTAGTGCAG | 32400 fluorescence intensity (a.u.) |
| TGATATAATACAATCAATCTGTAGTTTTGTGATAGTTTGACGGAGTCACCTAGTGCAG | 5930 fluorescence intensity (a.u.) |
| GAAATTACGATTTGTCATCGGAGAAGAGGAATTCATTGTCCGGAGTCACCTAGTGCAG | 3470 fluorescence intensity (a.u.) |
| ATATTGAATTATTGATTTGATGAAAATAATTTAGTATTATCGGAGTCACCTAGTGCAG | 20500 fluorescence intensity (a.u.) |
| AAAATTAAATGCGATCAATCAGAGCCGTCCATATCTCTGCCGGAGTCACCTAGTGCAG | 33400 fluorescence intensity (a.u.) |
| CTTCAATTACAATCCGGTGCAACACGTGTGGAATAATACACGGAGTCACCTAGTGCAG | 5920 fluorescence intensity (a.u.) |
| AACCGTGATTGTGAAGCCTCATTCTCTTTTATGGAAGGCACGGAGTCACCTAGTGCAG | 26500 fluorescence intensity (a.u.) |
| GTCACCAATTATCAACAGAAAAGGGTGTGTAACCTTACCACGGAGTCACCTAGTGCAG | 3870 fluorescence intensity (a.u.) |

| Sequence | binding signal |
| --- | --- |
| GACTTGTTATCGTATAATTAATTAAGTACTATCGTATAATCGGAGTCACCTAGTGCAG | 7460 fluorescence intensity (a.u.) |
| AAGTGATTTTCCGGTCTGATTGCTTGACGCTAATCCAAAACGGAGTCACCTAGTGCAG | 19500 fluorescence intensity (a.u.) |
| TTGAAATATAAATCAAATATATATTAGAGGCATCCATAAGCGGAGTCACCTAGTGCAG | 5620 fluorescence intensity (a.u.) |
| GTTAGATGATAAAACATGATTAATATTTTATGTGTGACTTCGGAGTCACCTAGTGCAG | 7500 fluorescence intensity (a.u.) |
| TGTGTAGTCTTGTTTGATTTAATTGCAACGAATTTAATGGCGGAGTCACCTAGTGCAG | 3470 fluorescence intensity (a.u.) |
| GGCGCGCTGATTGCGAGGGAGGCCGAGAACGGCATCCATACGGAGTCACCTAGTGCAG | 5300 fluorescence intensity (a.u.) |
| TAACAATAATTACAATGACTTATACTCACCCTATCCACAACGGAGTCACCTAGTGCAG | 12300 fluorescence intensity (a.u.) |
| AGCAAGATTGCAATAACTCCATAATTAATAGTGCTATCAGCGGAGTCACCTAGTGCAG | 25700 fluorescence intensity (a.u.) |
| AAAATAATTTAGGATACTCACAAGAAAATAAACGATCGTCCGGAGTCACCTAGTGCAG | 5740 fluorescence intensity (a.u.) |
| GTGTAAATTAGACCATTTTATAGATATCTTGTAGCAAATTCGGAGTCACCTAGTGCAG | 5520 fluorescence intensity (a.u.) |
| GTATTTGTGTGATTGATTTTAAGTTAGAACACAGTGATGACGGAGTCACCTAGTGCAG | 33400 fluorescence intensity (a.u.) |
| ACGTGTTGATTATGCTAAGCAATTAGAGATTACGTATTGACGGAGTCACCTAGTGCAG | 13800 fluorescence intensity (a.u.) |
| TTAATTAACAGGCCAAGTTTTCACTACCCAATAAACAAGGCGGAGTCACCTAGTGCAG | 12300 fluorescence intensity (a.u.) |
| GCTTGATGGATTGGGTAGTGGCCGAGGCCGATGGCTCTCCCGGAGTCACCTAGTGCAG | 27800 fluorescence intensity (a.u.) |
| TGTTTTACCCTGATTGCGTGAAGTGAAACTATTATTCAGGCGGAGTCACCTAGTGCAG | 3550 fluorescence intensity (a.u.) |
| CAAATTCTGATTGCAGAGCCAGAAGAGCCAGTCGCATTGTCGGAGTCACCTAGTGCAG | 16200 fluorescence intensity (a.u.) |
| AACTTAATTATATAGTTTAACATCATCATATTTATATTTGCGGAGTCACCTAGTGCAG | 25700 fluorescence intensity (a.u.) |
| AATAAAATTGACGTTCTCCATTTTGGAAAGGAGGGACTAACGGAGTCACCTAGTGCAG | 16400 fluorescence intensity (a.u.) |
| GACGCCGTCAGCAATGATTGCCTTGCTAGCAGCTGCTTGACGGAGTCACCTAGTGCAG | 4390 fluorescence intensity (a.u.) |
| TCCCAATTGACTAGAGGATGCTTCAGAGATGAAAACATGGCGGAGTCACCTAGTGCAG | 9280 fluorescence intensity (a.u.) |
| AGTGTGTGATTGATAGTAGTATTAATTATTTTAAACTTAACGGAGTCACCTAGTGCAG | 39700 fluorescence intensity (a.u.) |
